From a collection of fitness landscapes (doi:10.1126/science.1257360)
This is one part of the list.

B1: PhoQ; a variant is named by its letters at X, in order, P23837 (parent)
chain: MKKLLRLFFPLSLRVRFLLATAAVVLVLSLAYGMVALIGYSVSFDKTTFRLLRGESNLFYTLAKWENNKLHVELPENIDKQSPTMTLIYDENGQLLWAQRDVPWLMKMIQPDWLKSNGFHEIEADVNDTSLLLSGDHSIQQQLQEVREDDDDAEMTHSVAVNVYPATSRMPKLTIVVVDTIPVELKSSYMVWSWFIYVLSANLLLVIPLLWVAAWWSLRPIEALAKEVRELEEHNRELLNPATTRELTSLVRNLNRLLKSERERYDKYRTTLTDLTHSLKTPLXXLQXXLRSLRSEKMSVSDAEPVMLEQISRISQQIGYYLHRASMRGGTLLSRELHPVAPLLDNLTSALNKVYQRKGVNISLDISPEISFVGEQNDFVEVMGNVLDNACKYCLEFVEISARQTDEHLYIVVEDDGPGIPLSKREVIFDRGQRVDTLRPGQGVGLAVAREITEQYEGKIVAGESMLGGARMEVIFGRQHSAPKDE

Variants of: B1
Test: enrichment ratio after two sorts for PhoP signalling (ratio (wild type AVST 3.29)); higher = more functional
Details: with PhoP (E. coli)

Row | Variant | enrichment ratio
1 | FNNK | ≤ 0.25
2 | VSAD | ≤ 0.25
3 | RLCF | ≤ 0.25
4 | RSEI | ≤ 0.25
5 | GQEA | ≤ 0.25
6 | MMSR | ≤ 0.25
7 | DRRS | ≤ 0.25
8 | VGPW | ≤ 0.25
9 | WLTI | ≤ 0.25
10 | ACTK | 4.69
11 | SHTS | ≤ 0.25
12 | WRNP | ≤ 0.25
13 | TTSN | 11.1
14 | QHPV | ≤ 0.25
15 | DIDW | ≤ 0.25
16 | KFGI | ≤ 0.25
17 | INAF | ≤ 0.25
18 | KPCY | ≤ 0.25
19 | AWPY | ≤ 0.25
20 | RQRK | ≤ 0.25
21 | LVVM | ≤ 0.25
22 | FNNH | ≤ 0.25
23 | KRRD | ≤ 0.25
24 | YEEM | ≤ 0.25
25 | WKYH | ≤ 0.25
26 | FGVY | ≤ 0.25

Row | Variant | enrichment ratio
27 | INLC | ≤ 0.25
28 | WITG | ≤ 0.25
29 | WQSP | ≤ 0.25
30 | GAPH | ≤ 0.25
31 | LDFD | ≤ 0.25
32 | HHYS | ≤ 0.25
33 | NWMC | ≤ 0.25
34 | WNQH | ≤ 0.25
35 | EQWG | ≤ 0.25
36 | GLYN | ≤ 0.25
37 | QAHY | ≤ 0.25
38 | MGSM | 8.17
39 | MNCM | ≤ 0.25
40 | IQSI | ≤ 0.25
41 | GQVG | 1.55
42 | GGNP | ≤ 0.25
43 | NHHL | ≤ 0.25
44 | DNFM | ≤ 0.25
45 | ICCD | ≤ 0.25
46 | QHDP | ≤ 0.25
47 | SMVT | 2.85
48 | FYHT | ≤ 0.25
49 | ETNH | ≤ 0.25
50 | PKFL | ≤ 0.25
51 | YMIY | ≤ 0.25
52 | GWVL | ≤ 0.25

Row | Variant | enrichment ratio
53 | LWHW | ≤ 0.25
54 | RFLI | ≤ 0.25
55 | VNRC | ≤ 0.25
56 | DGMH | ≤ 0.25
57 | WCYS | ≤ 0.25
58 | DQVE | ≤ 0.25
59 | TDYW | ≤ 0.25
60 | IPLM | ≤ 0.25
61 | TQVS | 8.82
62 | WNPS | ≤ 0.25
63 | LNQH | ≤ 0.25
64 | RPQV | ≤ 0.25
65 | TQGN | 4.74
66 | YHSS | ≤ 0.25
67 | FNRI | ≤ 0.25
68 | YWIE | ≤ 0.25
69 | IDND | ≤ 0.25
70 | GWMI | ≤ 0.25
71 | TGMT | 3.1
72 | RRTE | ≤ 0.25
73 | MGNK | ≤ 0.25
74 | VYIC | ≤ 0.25
75 | QFCS | ≤ 0.25
76 | GTRM | ≤ 0.25
77 | CPCI | ≤ 0.25
78 | HKLI | ≤ 0.25

Row | Variant | enrichment ratio
79 | NPLE | ≤ 0.25
80 | QLTA | 3.23
81 | KFHP | ≤ 0.25
82 | SEEV | 1.98
83 | WFCL | ≤ 0.25
84 | VHFK | ≤ 0.25
85 | SRMD | ≤ 0.25
86 | RVAI | ≤ 0.25
87 | MAKF | ≤ 0.25
88 | MRSW | ≤ 0.25
89 | DHLN | ≤ 0.25
90 | EGKM | ≤ 0.25
91 | FFVH | ≤ 0.25
92 | LCRA | ≤ 0.25
93 | DDYF | ≤ 0.25
94 | MNML | 24.9
95 | GCDR | ≤ 0.25
96 | QVER | ≤ 0.25
97 | NWMK | ≤ 0.25
98 | PFLT | ≤ 0.25
99 | CLSL | 6.34
100 | ASCP | ≤ 0.25
101 | NYRN | ≤ 0.25
102 | EAMS | ≤ 0.25
103 | PAYL | ≤ 0.25
104 | ANPF | ≤ 0.25

Row | Variant | enrichment ratio
105 | PPVM | ≤ 0.25
106 | YQHY | ≤ 0.25
107 | IQPI | ≤ 0.25
108 | SGFD | ≤ 0.25
109 | WPDK | ≤ 0.25
110 | VKKP | ≤ 0.25
111 | SKVR | ≤ 0.25
112 | EVCT | ≤ 0.25
113 | NYTM | ≤ 0.25
114 | IILM | 0.265
115 | LVFH | ≤ 0.25
116 | FRIF | ≤ 0.25
117 | PKFH | ≤ 0.25
118 | TYNQ | 6.02
119 | PRIR | ≤ 0.25
120 | NEKH | ≤ 0.25
121 | MLFF | ≤ 0.25
122 | WTMR | ≤ 0.25
123 | WAEP | ≤ 0.25
124 | EVSM | 7.73
125 | MYRK | ≤ 0.25
126 | WMMP | ≤ 0.25
127 | NFAY | ≤ 0.25
128 | EDQE | ≤ 0.25
129 | QKNF | ≤ 0.25
130 | QEYI | 13.9

Row | Variant | enrichment ratio
131 | KARP | ≤ 0.25
132 | QTAC | ≤ 0.25
133 | TIER | 1.58
134 | HSNH | ≤ 0.25
135 | SVHH | ≤ 0.25
136 | RIKW | ≤ 0.25
137 | WNHD | ≤ 0.25
138 | RKSN | ≤ 0.25
139 | PFEM | ≤ 0.25
140 | RWIT | ≤ 0.25
141 | QEMP | ≤ 0.25
142 | NVIT | ≤ 0.25
143 | NAPS | ≤ 0.25
144 | MPQS | ≤ 0.25
145 | NIAS | ≤ 0.25
146 | MPSK | ≤ 0.25
147 | IMIM | ≤ 0.25
148 | NFIK | ≤ 0.25
149 | DTHA | ≤ 0.25
150 | PYML | ≤ 0.25
151 | RAHF | ≤ 0.25
152 | QCRA | ≤ 0.25
153 | INHH | ≤ 0.25
